# The other results are listed elsewhere or left out.
# Experiments:
# HSkMC = human skeletal muscle cells; experiment: cytotoxicity call (relative viability < 0.9); conditions: 10 µM
# HepG2 = experiment: cytotoxicity call (relative viability < 0.9); conditions: 10 µM
# S. aureus RN4220 = experiment: growth inhibition call (relative growth <= 0.2); conditions: 50 µM
Compound,cytotoxicity call (HSkMC),cytotoxicity call (HepG2),growth inhibition call (S. aureus RN4220)
COc1ccc(S(=O)(=O)Nc2ccc3c(c2)CC(=O)N([C@H](C)CO)C[C@H](C)[C@@H](CN(C)S(=O)(=O)c2ccc(F)cc2)O3)cc1,inactive,inactive,inactive
C[C@@H]1CN([C@@H](C)CO)C(=O)Cc2cc(NC(=O)c3ccncc3)ccc2O[C@@H]1CN(C)S(=O)(=O)c1cccs1,inactive,active,inactive
COCCOC(=O)N1C(=O)[C@@]2(c3cc(C#CCCO)ccc31)[C@H](c1ccccc1OCCO)N1[C@H](c3ccccc3)[C@H](c3ccccc3)OC(=O)[C@H]1[C@@H]2C(=O)Nc1nc2ccccc2s1,inactive,inactive,inactive
C=CC[C@H](CC(=O)N(CCO)Cc1ccccc1)C(=O)N[C@H](COC(=O)[C@@H](CC=C)Cc1ccc(F)cc1)C(C)(C)C,inactive,inactive,inactive
C[C@@H]1CN([C@@H](C)CO)C(=O)c2cc(-c3cccc(C#N)c3)cnc2O[C@@H]1CN(C)C(=O)c1cnccn1,inactive,inactive,inactive
c1cc[n+](C[n+]2ccccc2)cc1,inactive,inactive,inactive
C[C@H]1CN([C@@H](C)CO)S(=O)(=O)c2ccc(C3=CCCC3)cc2O[C@@H]1CN(C)C(=O)Cc1ccncc1,inactive,inactive,inactive
COc1ccc(NC(=O)N(C)C[C@@H]2Oc3ccc(NC(=O)CCN4CCOCC4)cc3C(=O)N([C@H](C)CO)C[C@@H]2C)cc1,inactive,inactive,inactive
C[C@@H]1CCCCO[C@@H](CN(C)C(=O)Cc2ccccc2)[C@H](C)CN([C@@H](C)CO)C(=O)c2cc(NC(=O)Nc3ccc(F)cc3)ccc2O1,inactive,inactive,inactive

# From the antibiotic and cytotoxicity screens of Wong et al. (2023)
